In paper PMC6919601, “Identification of Plasmodium dipeptidyl aminopeptidase allosteric inhibitors by high throughput screening” (PLoS ONE, 2019):
About 230 (0.21%) of roughly 110,000 compounds showed an effect of 50% or more. The list shows a part of the results.

Each compound was assayed against DPAP1 (Plasmodium falciparum, UniProt Q8IIJ9) (assay: primary screen, percent inhibition; read by cleavage of a fluorogenic dipeptide substrate; higher = more effect of the substance).
Design: species or system P. falciparum D10 trophozoite lysates; single well
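Further: 30 min substrate incubation versus DMSO and 10 µM JCP410 controls.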

Sequence of DPAP1 (Q8IIJ9 whole entry, looked up): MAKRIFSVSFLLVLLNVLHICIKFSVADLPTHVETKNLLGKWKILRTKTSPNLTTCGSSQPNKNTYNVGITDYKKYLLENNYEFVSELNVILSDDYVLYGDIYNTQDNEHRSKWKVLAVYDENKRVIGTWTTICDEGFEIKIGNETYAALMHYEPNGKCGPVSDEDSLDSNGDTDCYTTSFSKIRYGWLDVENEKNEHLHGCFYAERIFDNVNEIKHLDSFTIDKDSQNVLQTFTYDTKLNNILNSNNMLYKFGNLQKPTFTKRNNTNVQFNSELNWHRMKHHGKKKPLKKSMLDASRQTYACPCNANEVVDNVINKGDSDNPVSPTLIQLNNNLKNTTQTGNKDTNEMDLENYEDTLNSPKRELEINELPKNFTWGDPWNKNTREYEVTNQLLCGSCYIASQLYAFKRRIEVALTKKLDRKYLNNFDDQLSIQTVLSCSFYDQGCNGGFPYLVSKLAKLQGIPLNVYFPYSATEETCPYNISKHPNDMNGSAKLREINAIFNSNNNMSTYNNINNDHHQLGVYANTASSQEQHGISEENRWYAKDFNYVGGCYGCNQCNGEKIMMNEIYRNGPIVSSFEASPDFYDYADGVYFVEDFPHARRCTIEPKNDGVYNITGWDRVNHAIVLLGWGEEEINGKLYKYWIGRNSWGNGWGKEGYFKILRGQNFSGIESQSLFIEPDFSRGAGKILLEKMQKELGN

SMILES	% Inhibition @ 10 uM
NC1=NC(c2ccc(Br)s2)n2c(nc3ccccc32)N1 (stereo not drawn)	-3.53%
COc1ccccc1C(=O)N1CCc2ccccc21	2.25%
CC1=CN(CCO)/C(=C/c2sc3ccc4ccccc4c3[n+]2CCCS(=O)(=O)O)S1	-1.72%
CC(C)(C)N(Cc1ccccc1)C(=O)c1ccco1	4.93%
COc1ccc(S(=O)(=O)N(C)Cc2ccccc2)cc1OC	1.26%
O=C(CSCc1ccccc1Cl)NC1CC2CCC1C2 (stereo not drawn)	1.82%
O=C(/C=C/c1ccccc1)OCC(=O)c1ccc(-n2nncc2-c2ccco2)cc1	4.51%
COc1ccc(CCN2C(=O)NC(NS(=O)(=O)c3ccccc3)(C(F)(F)F)C2=O)cc1OC (stereo not drawn)	-1.52%
CCN(CC)c1ccc(C2C3=C(O)CC(c4ccco4)CC3=Nc3ccccc3N2C(C)=O)cc1 (stereo not drawn)	4.08%
c1ccc(-c2nnn(C34CC5CC(CC(C5)C3)C4)n2)cc1	-0.546%
O=C(O)C1CC=CCC1C(=O)Nc1ccccc1C(=O)N1CCN(c2ccc(Cl)cc2)CC1 (stereo not drawn)	-3.43%
Nc1c(C(=O)Nc2ccc(Br)cn2)sc2nc3c(cc12)CCCCCC3	-2.14%
Nc1ncnc2c1ncn2C1OC2COP(=O)(O)OC2C1O (stereo not drawn)	-6.78%
Cc1ccccc1OCCCn1c(CO)nc2ccccc21	2.69%
Cn1c2c(c(=O)[nH]c1=O)C(c1ccc(OCc3ccccc3)cc1)C1=C(O)c3ccccc3C1=N2 (stereo not drawn)	1.16%
Cc1ccsc1CCNC(=O)C1CCC(CNc2c(N3CCC(C)CC3)c(=O)c2=O)CC1 (stereo not drawn)	-0.447%
C/C(=N\OCc1nc2c3c4c(sc3ncn2n1)CCCCC4)c1ccc(Br)cc1	-1.6%
CCC(C)NC(=O)c1cnn2c(C(F)(F)F)cc(-c3cccs3)nc12 (stereo not drawn)	-4.06%
COc1ccccc1CNc1ncnc2c1nc1n2CCCCC1	-0.431%
Cn1c2ccccc2c2nc3cc4ccccc4cc3nc21	-2.54%
CCOCCCNC(=O)CCC(=O)n1ncc2ccccc21	5.23%
Cn1c(S)nc2c(=O)oc3ccccc3c21	56.8%
Cc1c2cnn(CC(=O)NCCN(C)C)c(=O)c2c(C)n1Cc1cccc(Cl)c1	-0.447%
CCOC(=O)C1=C(C)OC(N)=C(C#N)C1c1cc2c(cc1[N+](=O)[O-])OCO2 (stereo not drawn)	1.11%
CC(C)c1cccc(C(C)C)c1OCCN1CCOCC1	-0.0953%
COCCCN1C(=S)NC2CC1(C)Oc1c(Cl)cccc12 (stereo not drawn)	-11.8%

SMILES	% Inhibition @ 10 uM
Cc1ccc(CN(Cc2ccco2)C(=O)C(C)Oc2cc(C)c(Cl)c(C)c2)o1 (stereo not drawn)	5.43%
COc1cc(/C=C2/NC(=O)N(CC(=O)Nc3cccc(C)c3)C2=O)cc(Br)c1O	-17%
CC(NC(=O)C(C)(C)C)c1ccc(Br)cc1 (stereo not drawn)	0.00773%
Cc1cc(C)c2nc3s/c(=C\c4ccc5c(c4)OCO5)c(=O)n3c2c1	1.27%
Cc1ccc(S(=O)(=O)N(C)c2ccc(C(=O)NC3CCCCC3)cc2)cc1	-14.1%
Oc1nc(CSc2nnc(-c3cccnc3)n2-c2ccccc2)nc2ccccc12	-3.74%
FC(F)(F)COc1nc(N2CCOCC2)nc(N(c2ccccc2)c2ccccc2)n1	1.8%
CNC(=O)C1CCC(=O)N1Cc1ccc(C)cc1 (stereo not drawn)	4.81%
CCn1c2ccccc2c2nnc(NCc3cccnc3)nc21	1.68%
N#CCNC(=O)C(CC1CCCCC1)C(=O)Nc1cccc2c1CCCC2 (stereo not drawn)	-6.98%
Cc1c(C#N)c(N)c(C(=O)c2ccccc2)n1-c1ccccc1	-1.37%
COc1ccc(NC(=O)c2ccccc2N(C)S(C)(=O)=O)c(OC)c1	3.58%
CCN(Cc1ccccc1)c1nc2c(S(=O)(=O)c3cccc(Cl)c3)nnn2c2ccsc12	1.68%
Cc1nc2c3cccnc3nn2c(C)c1CCC(=O)NC(C)CCc1ccco1 (stereo not drawn)	1.62%
CC1(c2ccccc2)CC(C)(C)N(C(=O)CN2CCCCC2)c2ccccc21 (stereo not drawn)	2.05%
COc1cccc2cc(C(N)=O)c(=O)oc12	-1.37%
O=C(Nc1ccccc1C(=O)Nc1nc2ccccc2[nH]1)c1ccc(Cl)cc1	-0.641%
CS(=O)(=O)N1CCCC(C(=O)NCCCN2CCOCC2)C1 (stereo not drawn)	6.86%
CC1=C(C(=O)Nc2ccccc2)C(c2ccc(OCc3ccccc3)cc2)n2ncnc2N1 (stereo not drawn)	9.82%
O=C(NCc1ccccc1)c1cc2c(s1)-c1ccccc1OC2	2.85%
O=[N+]([O-])CC(Nc1ccccc1)c1ccccc1 (stereo not drawn)	-4.01%
CCOc1ccc(C(=O)Nc2ccc(C)cc2)cc1	-1.63%
CCOc1ccc(N2C(=O)C3CC=CCC3C2=O)cc1 (stereo not drawn)	-1.54%
O=C(CC(c1ccccc1)c1ccccc1)N1CCN(c2ccc(F)cc2)CC1	2.16%
CCCCN(Cc1cc2cc(C)ccc2nc1O)S(C)(=O)=O	-0.671%
CN1CCCC1CCNC1CCC(C(C)(C)C)CC1 (stereo not drawn)	3.15%

SMILES	% Inhibition @ 10 uM
COCc1cc(C)nc2sc3c(c12)NCN(Cc1ccco1)C3=O	2.54%
CC1=[N+]([O-])C(C)(C)[N+]([O-])=C1c1ccc(C)cc1	-5.28%
Clc1ccccc1Cn1c(-c2cccnc2)nc2ccccc21	-4.75%
Cc1ccc(/C=C2/CC(C)C/C(=C\c3ccc(C)o3)C2=O)o1 (stereo not drawn)	1.84%
Cc1ccc(CS(=O)(=O)CCC(=O)NCCC(C)C)cc1	-2.99%
CCOc1cc(C=C2C(=O)NC(=O)NC2=O)ccc1OCc1ccc(C)cc1	-1.1%
CCOC(=O)c1ccc(-c2nnc(-c3cccc(F)c3)o2)cc1	2.7%
C=CCNC(=O)C(=O)Nc1cc(OC)ccc1OC	-7.5%
CN1C(=O)/C(=C2\SC(N3CCOCC3)=NC2=O)c2ccccc21	-6.68%
COc1ccc(C(=O)N[C@@H](Cc2cc(I)c(O)c(I)c2)C(=O)NCC#N)cc1	-3.25%
Cc1cc(C)n2c(SCc3ccc(Cl)cc3Cl)nnc2n1	-3.4%
O=C(NC1CCSC1=O)c1ccccc1Cl (stereo not drawn)	0.62%
CC(C)CNC(=O)C(=O)NCc1ccccn1	-5.26%
N#Cc1cc2c(nc1SCC(=O)Nc1cccc(F)c1)CCCCC2	-0.413%
Cc1cccc(-c2nc(SCC(=O)Nc3nccs3)c(-c3ccccc3)[nH]2)c1	-3.39%
Cc1cc(C)c(OCC(O)CN2CCOCC2)c(C)c1 (stereo not drawn)	0.035%
O=[N+]([O-])c1cccc(NCc2ccccc2)c1	3.06%
COc1ccc(N(CC(=O)NCc2ccco2)S(=O)(=O)c2ccc(C)cc2)cc1Cl	0.161%
NCC(=O)N1CCC2(C=Cc3ccccc32)CC1	-3.09%
CC(=O)N1CC(C)c2scc(C)[n+]2-c2ccccc21 (stereo not drawn)	-2.98%
N#C/C(=C\NCC(=O)O)C(=O)NCc1ccccc1	-6.69%
CCOc1ccc(S(=O)(=O)NCCOC)c2ccccc12	-5.19%
COc1ccc(CCN(C)C(=O)C2CCCN(Cc3ccc(OC)c(OC)c3)C2)cc1OC (stereo not drawn)	-2.98%
COCC(=O)Nc1nc2nc(-c3ccccc3)cc(O)n2n1	-3.08%
CCCNC(=O)c1cc2n(n1)C(C(F)(F)F)CC(c1ccc(C)cc1)N2 (stereo not drawn)	10.8%
CC1CC(C)CN(C(=O)c2cnc3ccc(S(=O)(=O)N(C)CCC#N)cc3c2O)C1 (stereo not drawn)	-3.21%

SMILES	% Inhibition @ 10 uM
CSc1nn(-c2cc(Oc3ccccc3C)ncn2)c(N)c1C#N	-6.18%
CCOc1cc(C)c(S(=O)(=O)NCc2ccc3c(c2)OCO3)cc1C	-5.41%
CCn1cc(CNC(=O)c2cc(-c3ccc(C)c(C)c3)nc3ccccc23)cn1	0.64%
O=C(Cc1cccs1)N1CCN(c2ccccc2)CC1	-6.25%
O=C(NCc1cccnc1)C(=O)N1CCCC1	-1.75%
CN1CCN(C(=O)C2c3ccccc3C(=O)N(C3CCCC3)C2c2cccs2)CC1 (stereo not drawn)	-6.56%
CN(Cc1nc2ccccc2n1C)S(=O)(=O)c1ccc(F)cc1	2.42%
CC1=NN(c2ccccc2)C(=O)/C1=C/c1ccc(Cl)cc1	-2.59%
CCN(CC)C(=O)C1CCCN(CC2CC=CCC2)C1 (stereo not drawn)	-1.5%
Oc1ccc(CN2CCC(Cc3ccccc3)CC2)cc1	-0.828%
Brc1ccc(CN2CCN(c3ccccc3)CC2)s1	-3.72%
COc1ccc(CCNC(=O)c2nc(S(=O)(=O)Cc3ccc(C)cc3)ncc2Cl)cc1OC	0.758%
CCN(CC)C(=O)CN1Cc2ccccc2C1=O	3.87%
CC1CN(C(=O)Cn2cnc3c2c(=O)n(C)c(=O)n3C)CC(C)O1 (stereo not drawn)	8.09%
CC(CCc1ccco1)NC(=O)c1nn(C)c2c1CS(=O)(=O)c1ccccc1-2 (stereo not drawn)	5.82%
Cc1ccc(C2=C/C(=C\c3cccs3)C(=O)O2)cc1C	-0.169%
Brc1ccccc1OCCCN1CCCCC1	6.83%
CCOc1cc2c(cc1OCC)C(c1ccc(OC(C)C)cc1)NCC2 (stereo not drawn)	3.53%
CNC(=O)/C(=C/c1ccco1)NC(=O)c1ccc(OC)cc1	22.9%
O=C(c1sc2ccccc2c1Cl)N1CCN(c2cccc(C(F)(F)F)c2)CC1	-9.52%
N=C(Cc1ccc(Cl)c(Cl)c1)NOC(=O)c1ccc2c(c1)OCO2	-0.386%
COc1ccc(C2C(C#N)=C(N)Oc3[nH]nc(C)c32)cc1COc1ccccc1 (stereo not drawn)	-5.48%
CC(C)c1ccc(/C=C2\SC(N3CCCC3)=NC2=O)cc1	12.3%
Cc1cccc(/N=c2\scc(-c3ccc(F)cc3)n2CCO)c1	-3.87%
